# Experimental data as given in patent US10195245B2, “Tetrapeptides derived from human C-X-C chemokines useful for treatment of various skin conditions” (Helix Biomedix, Inc., priority 2013, dated 2019).
# At least one peptide structure holds a part that was inferred or is arguable (an end, a ring closure or a residue). Marks after values point to notes of the source that are not given here. Some compounds share one wording; it may come from a single statement. Where a SMILES comes first, the peptide text is derived from it.
# Test system: S. aureus LTA induced IL-6 expression on human skin keratinocytes
# Assay: Blocking LTA induced IL-6 expression (ELISA)
# Assay type: cell-based
# Conditions: for Percent (%) Reduction of IL-6 compared to LTA treated / Percentage (%) expression relative to LTA induced IL-6: LTA 10 ug/ml + peptide 50 μg/ml; for Percent (%) Reduction of IL-6 compared to LTA treated / Percentage (%) expression relative to LTA induced IL-6 / IL-6 expression (arbitrary): 24 hrs; for Percentage (%) expression relative to LTA induced IL-6: LTA alone = 100; for IL-6 expression (arbitrary): LTA 10 ug/ml pre-incubated with peptide 50 μg/ml 30 min, ELISA; for reduction of LTA stimulated IL-6 expression (in words): LTA pretreated with peptide, human skin keratinocyte culture
# Text: The Gram-positive cell wall component peptidoglycan (PGN) is well known to stimulate pro-inflammatory cytokine expression. Lipoteichoic acid (LTA) is the key molecule in PGN that causes a concentration- and time-dependent increase in pro-inflammatory signals including nitric oxide synthase (iNOS), cyclooxygenase-2 (COX-2), IL-1 beta, TNF-alpha and IL-6 up-regulation (Lin et al., 2010). We therefore pretreated LTA with the inventive peptides and then assess the IL-6 stimulatory activity upon contact with human skin keratinocytes. […] It is very likely that the positively charged residues of the tetrapeptides bind to the negatively charged LTA thus blocking the interaction of LTA with its receptors. This is significant as bacterial cell wall components have been implicated in inflammatory skin conditions such as acne, rosacea, atopic dermatitis etc.
# S. aureus LTA induced IL-6 stimulation on human epidermal keratinocytes. Human keratinocytes were grown to >80% confluence in serum free keratinocyte cultural media. S. aureus LTA 10 ug/ml was pre-incubated with each peptide (50 μg/ml) at room temperature for 30 min then the mixture was transferred to keratinocyte culture. The treatment was allowed for 24 hrs. The supernatant was removed. After a brief spin to remove possible cell debris, the supernatant was subjected to IL-6 test using ELISA kit purchased from CellSciences (Canton, Mass.) according to the manufacturer's instructions.
Compound,Percent (%) Reduction of IL-6 compared to LTA treated,Percentage (%) expression relative to LTA induced IL-6,IL-6 expression (arbitrary),reduction of LTA stimulated IL-6 expression (in words)
"CC[C@H](C)[C@H](N)C(=O)N[C@@H](CCCCN)C(=O)N[C@@H](CCCCN)C(=O)N[C@@H](CC(C)C)C(=O)O [HB2274, IKKL] (H-IKKL-OH; N-terminus and C-terminus assumed)",74.28* %,25.72* %,0.321,significantly reduce
"CSCC[C@H](NC(=O)[C@@H](N)CCCCN)C(=O)NCC(=O)O [HB2268, KMG, reference compound] (H-Lys-Met-Gly-OH)",18.03* %,81.97%,1.023,
"CC[C@H](C)[C@H](N)C(=O)N[C@@H](CCC(=O)O)C(=O)N[C@@H](CCCCN)C(=O)N[C@@H](CCSC)C(=O)O [HB2233, IEKM] (H-IEKM-OH)",55.29* %,44.71* %,0.558,significantly reduce
"CC[C@H](C)[C@H](N)C(=O)N[C@@H](CCCCN)C(=O)N[C@@H](CCCCN)C(=O)N[C@@H](Cc1c[nH]c2ccccc12)C(=O)O [HB2272, IKKW] (H-IKKW-OH; N-terminus and C-terminus assumed)",57.78* %,42.22* %,0.527,significantly reduce
"CC[C@H](C)[C@H](N)C(=O)N[C@@H](CCC(N)=O)C(=O)N[C@@H](CCCCN)C(=O)N[C@H](C(=O)O)[C@@H](C)CC [HB2271, IQKI] (H-IQKI-OH; N-terminus and C-terminus assumed)",53.93* %,46.07* %,0.575,significantly reduce
"CC[C@H](C)[C@H](N)C(=O)N[C@@H](CCC(=O)O)C(=O)N[C@@H](CCCCN)C(=O)N[C@H](C(=O)O)[C@@H](C)CC [HB2270, IEKI] (H-IEKI-OH; N-terminus and C-terminus assumed)",37.82* %,62.18* %,0.776,significantly reduce
"CC(C)[C@H](N)C(=O)N[C@@H](CCC(=O)O)C(=O)N[C@@H](CCCCN)C(=O)N[C@@H](Cc1ccccc1)C(=O)O [HB2267, VEKF] (H-VEKF-OH; N-terminus and C-terminus assumed)",45.51* %,54.49* %,0.68,significantly reduce
"CC[C@H](C)[C@H](N)C(=O)N[C@@H](CCCCN)C(=O)N[C@@H](CCCCN)C(=O)N[C@H](C(=O)O)C(C)C [HB2273, IKKV] (H-IKKV-OH; N-terminus and C-terminus assumed)",68.43* %,31.57* %,0.394,significantly reduce
